Here are results for one protein from doi:10.1101/2022.04.12.488020 (bioRxiv, 2022).

This data set concerns the molecule itself. The data set is described as follows: cross-linking.

B1: full-length human TLR5, HA-tagged (TLR5-HA) (receptor)
chain: not shown
As for B1, the “stoichiometry N” value was found to be 2.

What is called stoichiometry N is a count of units in the complex or per binding partner.
